# In PubChem BioAssay AID504832 (National Center for Advancing Translational Sciences (NCATS), 2011):
# About 18,000 (5.8%) of roughly 310,000 compounds were called active. The shares of active, inactive and inconclusive entries below differ from those in the screen. Calls follow the shape of the dose curve; as a rule, active = well fitted inhibition curve with a large enough effect; inconclusive = small, poorly fitted or top-dose-only effect, or another doubt; inactive = no such curve, though single readings can be large or run the other way. Potencies of inconclusive entries are left out as doubtful fits.
# Assay: Primary qHTS for delayed death inhibitors of the malarial parasite plastid, 48 hour incubation
# Details: P. falciparum luciferase growth in erythrocytes; series mostly up to 28.7 µM
# Outline: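 Parasite viability was followed by luminescence of a genomically integrated firefly luciferase. Cultures held 0.1% parasitemia at 2% hematocrit (final), incubated under 5% CO2 at 37 C.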
# Potency is read from the fitted curve at half-maximal effect; tags tell the direction and shape of the fitted curve.
row,SMILES,Potency
1,COc1ccccc1N1CCN(C(=O)c2ccc(Cl)c(S(=O)(=O)N3CCCC3)c2)CC1,"inconclusive [inhibitor, single point]"
2,Cc1cc(C)n(CC(=O)NCc2cc(-c3nn(C)c(=O)c4ccccc34)ccc2C)n1,"inconclusive [inhibitor, single point]"
3,COc1ccc(N=c2oc3c(OC)cccc3cc2C(=O)NCc2ccco2)cc1OC,"inconclusive [inhibitor, single point]"
4,Cc1ccccc1OCC(=O)Nc1ccccc1-c1ccccc1NC(=O)COc1ccccc1C,active: 8.28 µM
5,CCOC(=O)C(O)(c1ccc(NC(=O)c2ccc(Cl)c(Cl)c2)cc1)C(F)(F)F (stereo not drawn),active: 9.28 µM
6,Cc1cc(C(=O)COC(=O)CC2Sc3ccccc3NC2=O)c(C)n1-c1cccc(C(F)(F)F)c1 (stereo not drawn),"inconclusive [inhibitor, full curve, poor fit]"
7,COc1c(O)ccc2c1CN1CCc3cc4c(cc3C1C2)OCO4 (stereo not drawn),active: 1.85 µM
8,CN(C(=O)COC(=O)c1ccc(CN2CCCC2=O)cc1)c1ccccc1,"inconclusive [inhibitor, single point]"
9,COc1cc2[nH]c(=S)n(Cc3ccccc3)c(=O)c2cc1OC,"inconclusive [inhibitor, partial curve, poor fit]"
10,O=C(CN1C(=O)C(=O)N(Cc2ccco2)C1=O)NC1CCCCC1,inactive
11,Cc1ccc(-c2nnn(CC(=O)N(c3ccccc3F)C(C(=O)NC3CCCC3)c3ccncc3)n2)o1 (stereo not drawn),"inconclusive [inhibitor, single point]"
12,COc1ccc(Cl)cc1C(=O)NC1=NCCS1,inactive
13,O=C(c1ccco1)N1CCC(c2nc3c(nnn3Cc3ccccc3Cl)c(=O)[nH]2)CC1,"inconclusive [inhibitor, partial curve]"
14,CCC(=O)c1ccc(OCC(=O)N(CC)CC2COc3ccccc3O2)cc1 (stereo not drawn),"inconclusive [inhibitor, full curve]"
15,C#CCCc1cscc1/C=[N+](\[O-])c1ccc(C(=O)OCC)cc1,active: 8.28 µM
16,COc1ccc(OC)c(-c2csc(NC(=O)COC(=O)C3(C)CC3(Cl)Cl)n2)c1 (stereo not drawn),"inconclusive [inhibitor, partial curve, poor fit]"
17,CC(C)C[C@H](NP(=O)(O)O[C@@H]1O[C@@H](C)[C@H](O)[C@@H](O)[C@H]1O)C(=O)N[C@@H](Cc1c[nH]c2ccccc12)C(=O)O,"inconclusive [inhibitor, partial curve, poor fit]"
18,COCCNC(=S)N/N=C(\C)c1cccc(C(F)(F)F)c1,"inconclusive [inhibitor, single point]"
19,COc1cccc2[nH]c(C(=O)NN)c(N)c12,"inconclusive [inhibitor, single point]"
20,COc1ccc(Cl)cc1NS(=O)(=O)c1cccc(C(=O)NCC(C)(C)N2CCOCC2)c1,"inconclusive [inhibitor, single point]"
21,COC(=O)c1ccccc1NC1c2ccccc2C(=O)N1c1cccnc1 (stereo not drawn),"inconclusive [inhibitor, partial curve, poor fit]"

row,SMILES,Potency
1,Cc1cc(C)cc(C(=O)Nc2ccc(NC(=O)c3cccs3)cc2)c1,"inconclusive [inhibitor, single point]"
2,CCCN(CCC)S(=O)(=O)c1ccc(C(=O)Nc2ccc(OCC(=O)N3CCOCC3)cc2)cc1,"inconclusive [inhibitor, partial curve, poor fit]"
3,CCOC(=O)c1ccc(NC(=S)N(CCCN2CCCC(C)C2)Cc2ccco2)cc1 (stereo not drawn),"inconclusive [inhibitor, single point]"
4,COc1ccc(CN2C(=O)c3cccnc3C2Nc2cc(Cl)c(OC)cc2OC)cc1 (stereo not drawn),"inconclusive [inhibitor, single point]"
5,COc1ccccc1-n1c(SCC(=O)N2CCCCC2)nnc1-c1ccccc1O,"inconclusive [inhibitor, full curve, poor fit]"
6,CCN1C(=O)[C@H]2[C@@H](c3ccc(-c4cccc(Cl)c4)cc3)N[C@@](C)(C(=O)OC)[C@H]2C1=O,active: 13.1 µM
7,CN(C)S(=O)(=O)c1cccc2c1C(=O)c1ccccc1C2=O,active: 11.7 µM
8,COc1ccc(C(=O)Nc2c3c(nn2-c2ccc(Cl)cc2)CS(=O)(=O)C3)cc1,"inconclusive [inhibitor, partial curve, poor fit]"
9,O=C(Nc1ccc(Nc2ccccc2)cc1)C(Cl)(Cl)Cl,"inconclusive [inhibitor, single point]"
10,CCCCn1c(N)c(N(CC(C)C)C(=O)C2CCN(S(=O)(=O)c3ccc(Cl)cc3)CC2)c(=O)[nH]c1=O,active: 9.28 µM
11,CCC(C(=O)OC)n1cnc2c(nnn2-c2ccccc2)c1=O (stereo not drawn),inactive
12,Cc1cc(C)c2nc(N3C(=O)C(O)=C(C(=O)c4ccco4)C3c3ccc(O)cc3)sc2c1 (stereo not drawn),"inconclusive [inhibitor, single point]"
13,Cc1cc(C(=O)OCC(=O)N(CC(C)C)c2c(N)n(Cc3ccccc3)c(=O)[nH]c2=O)c2ccccc2n1,"inconclusive [inhibitor, single point]"
14,Cc1cc(C(C)(C)C)ccc1OCCCCN1CCCC1,"inconclusive [inhibitor, single point]"
15,CCn1c(SCc2ccc(C(=O)Nc3nccs3)cc2)nnc1-c1ccc(N)cc1,active: 10.4 µM
16,CC1CCN(C(=O)c2ccc(Br)c(S(=O)(=O)N3CCOCC3)c2)CC1,inactive
17,COc1ccccc1Nc1ncc(C(=O)N2CCN(Cc3ccc(OC)c(OC)c3OC)CC2)c2ccccc12,"inconclusive [inhibitor, partial curve]"
18,Cc1n[nH]c(=O)c2c(NC(=O)CSc3nc4ccccc4c(=O)n3CCCO)oc(C)c12,inactive
19,O=C(NC1CCCCC1)C(c1ccco1)N(C(=O)c1csnn1)c1cccc(Cl)c1 (stereo not drawn),"inconclusive [inhibitor, partial curve, poor fit]"
20,Cc1ccc(CNC(=O)C2CCCCN2S(=O)(=O)c2ccccc2)cc1 (stereo not drawn),inactive
21,COc1cccc(C(CNC(=O)C2CCN(C(=O)Nc3ccccc3)CC2)N(C)C)c1 (stereo not drawn),"inconclusive [inhibitor, single point]"

row,SMILES,Potency
1,Nc1nonc1-n1nnc(C(=O)N/N=C/c2ccc(Br)cc2)c1CN1CCOCC1,inactive
2,CCC(=O)Nc1sc2c(c1C(=O)OC)CCN(Cc1ccccc1)C2,"inconclusive [inhibitor, partial curve]"
3,CCn1cc(CN2CCC(C(=O)Nc3ccc(Oc4cccnc4)cc3)CC2)c(C)n1,"inconclusive [inhibitor, single point]"
4,COc1ccc(OCC(=O)N2CCN(S(=O)(=O)c3ccccc3[N+](=O)[O-])CC2)cc1,"inconclusive [inhibitor, full curve]"
5,CCN(CC(=O)Nc1c(F)cccc1F)C(=O)c1ccc(OCc2c(C)noc2C)cc1,"inconclusive [inhibitor, single point]"
6,CC1CCCCC1NCC(=O)NCc1ccc(F)cc1 (stereo not drawn),inactive
7,C=C1CCN(C(CC(C)C)C(=O)OC)S(=O)(=O)c2ccccc21 (stereo not drawn),"inconclusive [inhibitor, single point]"
8,O=C(Nc1nc(-c2ccccn2)cs1)c1ccc(Br)s1,"inconclusive [inhibitor, full curve]"
9,CN(C)S(=O)(=O)N1CCN(c2cc(Cl)ccc2Cl)CC1,inactive
10,O=C(NCC(c1ccco1)N1CCc2ccccc21)C(=O)Nc1ccc(F)cc1F (stereo not drawn),"inconclusive [inhibitor, single point]"
11,CC1=C(C(=O)Nc2ccccc2C)C(c2ccc(C)o2)C2=C(CCCC2=O)N1 (stereo not drawn),inactive
12,Cc1ccc(S(=O)(=O)NCC(=O)N2CCc3ccccc3C2)cc1,"inconclusive [inhibitor, full curve, poor fit]"
13,CCCN(Cc1nnc(-c2ccccc2Cl)o1)C(=O)c1cc([N+](=O)[O-])cc([N+](=O)[O-])c1,"inconclusive [inhibitor, partial curve, poor fit]"
14,O=C(CNS(=O)(=O)c1ccc(Br)s1)Nc1ccc2c(c1)OCCO2,"inconclusive [inhibitor, full curve, poor fit]"
15,COc1ccc(CCNC(=O)[C@H](C)N2C(=O)N3CCc4c([nH]c5ccccc45)[C@@]3(C)C2=O)cc1OC,"inconclusive [inhibitor, single point]"
16,CCCC/C(O)=C1\C(=O)CC(C)(C)CC1=Nc1ccc(OC)cc1,"inconclusive [inhibitor, single point]"
17,O=C(c1ccco1)N1CCN(c2nc(C(F)(F)F)nc3c2nnn3Cc2ccccc2)CC1,active: 9.28 µM
18,CN1CCN(C(=O)C2CCC(=O)N(CCc3cccc(F)c3)C2)CC1 (stereo not drawn),"inconclusive [inhibitor, single point]"
19,CCc1c(O)nc(SC2CC(=O)N(c3ccccc3)C2=O)[nH]c1=O (stereo not drawn),"inconclusive [inhibitor, partial curve]"
20,Cc1ccc(NC(=O)C(c2ccccc2)N2CCN(CC(=O)N3CCOCC3)CC2)cc1 (stereo not drawn),"inconclusive [inhibitor, single point]"
21,Oc1c(Cl)cc(Cl)c2c1NCCC2,"inconclusive [inhibitor, single point]"
